According to publication PMC4336329 (PLoS ONE, 2015):
Out of some 310,000 compounds screened, about 14,000 (4.5%) showed an effect of 50% or more. The effect is printed as a negative number. The list shows a part of the results.

Target: human ether-à-go-go-related gene (hERG) potassium channel (human, UniProt Q12809)
Test: primary screen, population patch clamp on CHO cells stably expressing hERG
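Note: peak tail current of the secondary pulse compared with the same well before compound.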

human ether-à-go-go-related gene (hERG) potassium channel, sequence (Q12809 whole entry, looked up): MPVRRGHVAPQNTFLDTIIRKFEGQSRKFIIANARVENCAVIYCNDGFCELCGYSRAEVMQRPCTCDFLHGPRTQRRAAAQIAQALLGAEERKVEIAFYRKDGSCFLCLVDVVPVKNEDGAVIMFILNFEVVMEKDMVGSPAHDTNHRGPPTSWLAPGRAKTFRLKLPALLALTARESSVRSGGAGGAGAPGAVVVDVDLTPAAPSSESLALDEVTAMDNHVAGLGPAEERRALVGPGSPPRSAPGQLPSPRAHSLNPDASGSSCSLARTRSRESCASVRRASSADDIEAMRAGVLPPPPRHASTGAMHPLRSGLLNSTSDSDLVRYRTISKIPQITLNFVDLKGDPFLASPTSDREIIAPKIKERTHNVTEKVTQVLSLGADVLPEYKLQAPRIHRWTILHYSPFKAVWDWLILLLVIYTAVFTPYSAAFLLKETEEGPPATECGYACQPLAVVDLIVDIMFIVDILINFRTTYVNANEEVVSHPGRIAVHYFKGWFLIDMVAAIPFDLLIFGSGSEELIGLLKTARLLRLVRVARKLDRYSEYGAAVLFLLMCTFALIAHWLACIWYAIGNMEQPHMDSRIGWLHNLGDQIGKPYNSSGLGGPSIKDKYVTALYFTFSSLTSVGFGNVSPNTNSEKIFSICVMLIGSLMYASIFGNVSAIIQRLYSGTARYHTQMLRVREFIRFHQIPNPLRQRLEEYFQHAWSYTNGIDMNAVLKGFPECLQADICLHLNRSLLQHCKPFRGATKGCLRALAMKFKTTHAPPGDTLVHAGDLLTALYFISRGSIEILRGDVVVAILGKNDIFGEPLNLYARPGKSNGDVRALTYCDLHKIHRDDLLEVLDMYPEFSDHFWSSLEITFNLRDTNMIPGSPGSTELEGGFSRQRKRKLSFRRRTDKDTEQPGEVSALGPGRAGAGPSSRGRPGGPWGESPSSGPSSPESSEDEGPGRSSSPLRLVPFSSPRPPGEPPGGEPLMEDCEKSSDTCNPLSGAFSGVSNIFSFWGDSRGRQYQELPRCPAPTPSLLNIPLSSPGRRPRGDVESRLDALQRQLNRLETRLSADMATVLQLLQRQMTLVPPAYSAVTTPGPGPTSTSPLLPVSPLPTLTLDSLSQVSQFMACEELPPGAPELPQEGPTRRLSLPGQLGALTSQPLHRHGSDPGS

SMILES | hERG current change (%, negative = inhibition) at 10uM
C=CCOC(=O)C1=C[C@@H](c2ccc3c(c2)OCO3)C[C@@H](OCCCCO)O1 | -35.6%
C=C(C)c1cccc(C(C)(C)NC(=O)N2CCCC2)c1 | 13.7%
c1coc(Cn2c(SCc3nc4ccccc4[nH]3)nnc2-c2cnccn2)c1 | -56.3%
Cc1cc(C#N)c(SCC(N)=O)nc1-c1ccc(F)cc1 | 14.4%
Cc1nc(C)c(C(=O)N/N=C/c2cc(Br)ccc2O)s1 | -12.5%
COc1ccc(-c2cc3c(=O)n(CC(=O)Nc4cccc(Cl)c4)nc(C)n3n2)cc1 | 14.8%
CSc1ccc(/C=C/C(=O)c2ccc(O)cc2)cc1 | -2.65%
CCCN1C(=O)COc2ccc(C(=O)c3ccccc3C(=O)O)cc21 | 17.7%
CNc1ccccc1C(C)(C)c1cc(-c2cccc([N+](=O)[O-])c2)no1 | 8.04%
COc1ccc(OCC(=O)NS(=O)(=O)c2ccc(Cl)cc2)cc1 | 22.6%
CCCCCC(=O)N/N=C/c1ccc(N(C)C)cc1 | -19.2%
Cc1ccccc1NC(=O)CN1CCN(Cc2ccccc2)CC1 | -36.1%
O=C(CSc1nc2c(cnn2-c2ccc(F)cc2)c(=O)[nH]1)Nc1nccs1 | 4.54%
CN1C(=O)CC(N2CCC(C(N)=O)CC2)C1=O (stereo not shown) | 4.5%
COc1ccc(-c2nnnn2C)cc1S(=O)(=O)NCCc1ccccc1 | -2.23%
CC(C)N(C(=O)CN1C(=O)C(=O)c2ccccc21)c1ccccc1 | 3.08%
Cc1cccc(/C=c2\s/c(=C\C(=O)C(C)(C)C)[nH]c2=O)c1 | 13.2%
Oc1ccc2ccc3[nH]cnc3c2c1 | 6.36%
O=C(COC(=O)/C=C/c1cccc(C(F)(F)F)c1)Nc1cccc2ccccc12 | 2.84%
CCN(CC)CCN(C(=O)c1ccc(S(=O)(=O)N(C)C2CCCCC2)cc1)c1nc2c(C)cccc2s1.Cl | -13.9%
CCC1NC(=O)c2ccccc2N1c1cccc(Cl)c1 (stereo not shown) | -12.6%
CCOc1ccccc1N=Cc1c(O)c2ccccc2oc1=O | 15.4%

SMILES | hERG current change (%, negative = inhibition) at 10uM
COc1cc(/C=C(\C#N)C(=O)Nc2ccc3ccccc3c2)c([N+](=O)[O-])cc1OC | 8.14%
COC(=O)CCCC(NC(=S)N1CC2C[C@@H](C1)Cn1c2cccc1=O)C(=O)OC (stereo partly shown) | 8.56%
CCN(CC)CC(C)OC(=O)c1ccccc1Cl (stereo not shown) | 20.6%
O=C1Nc2ccccc2Oc2cc([N+](=O)[O-])cc(Oc3ccccc3)c21 | -24.5%
Cc1ccc(C)c(N2CCN(c3ncccc3[N+](=O)[O-])CC2)c1 | 2.42%
O=C(N/N=C/c1ccc(OC(=O)c2ccccc2Cl)cc1)c1ccccn1 | 4.78%
Cc1ccc(Cn2c(CN3CCOCC3)nc3c2c(=O)[nH]c(=O)n3C)cc1 | -21%
Cc1cc(C)n(CC(C)NC(=O)c2cc(COc3c(F)cccc3F)on2)n1 (stereo not shown) | 1.49%
CCOC(=O)c1ccc(COC(=O)c2ccc3c(c2)-c2ccccc2C3=O)cc1 | 7.04%
Nc1ncc([N+](=O)[O-])s1 | 19.6%
CC1CCC2(CC1)NC(=O)N(CC(=O)Nc1cccc(S(=O)(=O)N3CCOCC3)c1)C2=O (stereo not shown) | 1.07%
CCN(CC)C(=O)Cn1cc(SCC(=O)Nc2cc(C)on2)c2ccccc21 | -0.579%
CCc1ccc(OCC(=O)Nc2ccc3c(c2)COC3=O)cc1 | -14.2%
O=C1CCC(=O)N1c1ccc(-c2nc3ccccc3s2)cc1 | 16%
Cc1ccc(CNS(=O)(=O)c2ccc3c(c2)CCN3C(=O)CCCC(=O)O)cc1 | -8.37%
COc1cc(C2=NOC(C(=O)NCc3ccco3)C2)cc(OC)c1OC (stereo not shown) | -6.37%
Cc1ccc(-c2cc3nc(-c4ccc(Br)cc4)cc(N)n3n2)cc1 | -8.51%
O=C(NC1CC2CCCC(C1)N2Cc1ccccc1)c1cccc(F)c1 (stereo not shown) | -56.8%
COc1ccc(Cl)cc1NC(=O)c1ccccc1C | -4.07%
COc1ccc(NC(=O)CSc2ccc3nnc(-c4ccccn4)n3n2)cc1 | -20.9%
CCc1cc2ccc(C)cc2nc1SCC(=O)Nc1cc(C)on1 | 21.4%
CN(C)/C=C/C(=O)c1ccc(Oc2ncccn2)cc1 | 45%

SMILES | hERG current change (%, negative = inhibition) at 10uM
COC(=O)c1cccnc1-n1c(=O)c2cccnc2n(CC(=O)Nc2ccc(Br)cc2)c1=O | 6.72%
CCN(CC)C(=S)Nc1ccc2nc3n(c(=O)c2c1)CCCCC3 | -21.8%
CNc1ncc(-c2nnnn2-c2ccccc2)c(-c2ccccc2)n1 | -16.7%
COc1ccc(N(CC(=O)N2c3ccccc3CC2C)S(=O)(=O)c2c(C)noc2C)cc1 (stereo not shown) | 4.65%
COc1cc2c(cc1NC(=O)CSc1nnc(Cc3cccs3)n1Cc1ccco1)oc1ccccc12 | 5.88%
CC1CCN(C(=O)Cn2c(=O)oc3ccccc32)CC1 | -2.09%
NC(=O)[C@@H]1CCOc2c(F)cc([N+](=O)[O-])cc2C(=O)N[C@@H](CO)C(=O)NCC(=O)N1 | 11.1%
CC(C)(C)c1ccc(OCC(=O)N2CCCCCC2)c(Br)c1 | -11.9%
COc1ccc(-c2c(C)nn3c(-c4ccccc4)cc(C)nc23)cc1 | -13.3%
CCCN1CCN(CCCNC(=O)C2CCN(c3nnc(-n4c(C)ccc4C)s3)CC2)CC1 | -9.76%
COC(=O)N(C)c1ccccc1C(=O)N1CCOCC1 | -0.159%
O=c1nccc(NCc2ccco2)[nH]1 | -5.68%
O=C1N/C(=N\N=C\c2cccs2)SC1Cc1cccc(Cl)c1Cl (stereo not shown) | 4.64%
COc1ccc(OCC(=O)Nc2nccs2)cc1 | -1.31%
CN1CCN(C(=O)CCN2C(=O)S/C(=C/c3ccc(Cl)cc3)C2=O)CC1 | -35.3%
O=C(NNC(=S)NC(=O)c1ccccc1[N+](=O)[O-])c1ccccc1Cl | 6.38%
C/C(=N/NC(=O)c1cn(-c2cccc(C)n2)cn1)c1ccc(C)cc1 | -0.713%
COC(=O)c1ccc(/C=N/Nc2nc(-c3ccc(C)cc3)cs2)cc1 | 4.82%
C=CCN(c1nc(C)cc(OC)n1)S(=O)(=O)c1ccc(C)cc1 | 5.17%
Nc1[nH]n(-c2ccccc2)c(=O)c1N=Nc1ccc2ncsc2c1 | 4.05%
CCCCNC(=O)c1nc2ncc(Br)cn2n1 | -21%
S=C(NC1CC1)NC1CCCc2ccccc21 (stereo not shown) | 6.39%

SMILES | hERG current change (%, negative = inhibition) at 10uM
CCCCn1c(SCC(=O)NCc2ccco2)nc2c(sc3ccccc32)c1=O | -16.8%
CCCN(C(=O)COC(=O)CC1CCCCC1)c1c(N)n(Cc2ccccc2)c(=O)[nH]c1=O | 8.64%
CCN1CC2([N+](=O)[O-])C=CC(=O)C([N+](=O)[O-])(C1)C2CC(=O)c1ccccc1 (stereo not shown) | 11.2%
CN(Cc1ccccc1)S(=O)(=O)c1ccc2c(c1)CCC(=O)N2 | 12%
C/C=C(/C)C(=O)O[C@H]1[C@@H](O)c2c(ccc3ccc(=O)oc23)OC1(C)C | 3.92%
O=C(CS(=O)(=O)c1ccccc1)Nc1ccc(N2CCOCC2)cc1 | 30%
CCOC(=O)c1ccc(NC(=O)Nc2ccc3c(c2)OCCO3)cc1 | 10.6%
Cc1ccc(-n2nc(C(=O)O)nc2-c2ccccc2)cc1 | 6.5%
Cc1ccc(SCCc2cc[n+](CC(=O)c3ccccc3)cc2)cc1 | -70.5%
COc1cc(C2CC(=O)Oc3c(C(CCN4CCOCC4)c4ccc(N(C)C)cc4)c(OC)cc(OC)c32)cc(OC)c1OC (stereo not shown) | -10.8%
COc1ccccc1OCCCCn1c(C(C)O)nc2ccccc21 (stereo not shown) | -2.64%
CCOc1ccc(NC(=O)N2CCCC2C(=O)NCc2ccco2)cc1 (stereo not shown) | 11.4%
CC(C)(C)C(=O)N1CCCC1C(=O)O (stereo not shown) | 8.61%
CCC(=O)Nc1ccc(Oc2ccc3c(c2)C(=O)N(c2ccc(O)cc2)C3=O)cc1 | 22.9%
CNC(=S)/N=C(/Nc1ccccc1)c1ccccc1 | -3.18%
O=C1CCC(/C=C/c2ccccc2)=NN1Cc1ccccc1 | -3.3%
COc1ccc(/C(N)=N/OC(=O)c2cccc([N+](=O)[O-])c2)cc1OC | -14.8%
CN(C)c1c(N)c(=O)oc2ccccc12 | 29.4%
COC(=O)C1CCN(C(=O)COC(=O)c2ccc(OC)c(S(=O)(=O)N3CCCc4ccccc43)c2)CC1 | -45.7%
Cc1cc(=O)[nH]c(-n2ncc(C#N)c2N)n1 | 33.9%
COc1ccc([N+](=O)[O-])cc1NC(=O)C(C)OC(=O)CSC(C)C(=O)Nc1cc(C)on1 (stereo not shown) | -28.2%
Cc1cc(OCC(O)CNC(C)c2ccccc2)ccc1C(C)C.Cl (stereo not shown) | -26%
